According to publication PMC4336329 (PLoS ONE, 2015):
In all, about 310,000 compounds went through this assay and about 14,000 (4.5%) showed an effect of 50% or more. Effects have a minus sign here. The list shows a part of the results.

target: human ether-à-go-go-related gene (hERG) potassium channel (human, UniProt Q12809); assay: primary screen, population patch clamp on CHO cells stably expressing hERG
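Also: peak tail current of the secondary pulse compared with the same well before compound.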

Sequence of human ether-à-go-go-related gene (hERG) potassium channel (Q12809 whole entry, looked up): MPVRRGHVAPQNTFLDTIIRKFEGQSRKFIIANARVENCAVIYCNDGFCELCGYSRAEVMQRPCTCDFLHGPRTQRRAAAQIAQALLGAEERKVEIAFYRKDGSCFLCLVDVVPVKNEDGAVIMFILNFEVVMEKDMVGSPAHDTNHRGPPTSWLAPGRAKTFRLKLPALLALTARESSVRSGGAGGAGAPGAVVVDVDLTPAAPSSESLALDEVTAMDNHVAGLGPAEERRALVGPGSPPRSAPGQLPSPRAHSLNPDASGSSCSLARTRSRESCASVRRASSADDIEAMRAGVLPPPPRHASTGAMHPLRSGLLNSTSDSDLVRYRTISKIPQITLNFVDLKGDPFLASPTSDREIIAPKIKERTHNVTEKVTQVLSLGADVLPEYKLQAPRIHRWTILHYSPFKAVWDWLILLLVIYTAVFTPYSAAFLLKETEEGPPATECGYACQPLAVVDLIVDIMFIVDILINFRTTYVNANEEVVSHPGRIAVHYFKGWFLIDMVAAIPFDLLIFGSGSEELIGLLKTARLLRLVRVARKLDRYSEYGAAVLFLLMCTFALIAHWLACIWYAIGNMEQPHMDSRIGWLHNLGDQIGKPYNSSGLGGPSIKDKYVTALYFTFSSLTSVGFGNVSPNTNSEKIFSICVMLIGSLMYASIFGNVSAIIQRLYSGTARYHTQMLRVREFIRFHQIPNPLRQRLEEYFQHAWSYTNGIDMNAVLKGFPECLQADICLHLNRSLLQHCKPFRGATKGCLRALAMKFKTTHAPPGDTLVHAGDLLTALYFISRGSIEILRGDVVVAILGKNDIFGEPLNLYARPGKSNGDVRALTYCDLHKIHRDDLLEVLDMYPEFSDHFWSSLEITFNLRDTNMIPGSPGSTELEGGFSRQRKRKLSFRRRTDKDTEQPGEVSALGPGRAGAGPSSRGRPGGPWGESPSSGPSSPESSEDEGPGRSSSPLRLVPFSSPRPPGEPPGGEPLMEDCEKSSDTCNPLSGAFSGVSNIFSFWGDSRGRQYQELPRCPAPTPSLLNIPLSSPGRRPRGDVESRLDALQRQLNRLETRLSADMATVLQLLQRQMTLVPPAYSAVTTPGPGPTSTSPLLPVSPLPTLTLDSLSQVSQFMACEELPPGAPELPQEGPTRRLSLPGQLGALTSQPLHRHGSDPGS

SMILES	hERG current change (%, negative = inhibition) at 10uM
Cc1cc(-c2ccccc2)c2c(n1)sc1c(O)cc(=O)[nH]c12	29.2%
O=C(C1=C(O)C(=O)N(CCN2CCOCC2)C1c1cccc(F)c1)c1cc2ccccc2o1 (stereo not drawn)	1.25%
COc1ccc(/C(N)=N/OC(=O)c2ccc(Br)o2)cc1	8.81%
COc1ccc(OC)c(NC(=O)CN2C(=O)NC3(CCCc4ccccc43)C2=O)c1 (stereo not drawn)	-2.88%
CSCCC(NC(=O)COc1ccccc1)C(=O)N(C)Cc1cccc(F)c1 (stereo not drawn)	-37.9%
O=C(/C=C/c1ccc(F)cc1)N1CCCN(C(=O)/C=C/c2ccc(F)cc2)CC1	-75.6%
CCNC(=O)N1C(=O)C2(OCCO2)c2cc(Br)ccc21	12.2%
CCCCSCCCNC(=O)c1ccc(CS(=O)(=O)c2ccccc2OC)o1	-41.4%
Cc1cc(S(=O)(=O)N2CCOCC2)ccc1OCC(=O)Nc1ccccc1C(F)(F)F	12.8%
Cn1c(Cn2nnc3ccccc32)nnc1SCC(=O)c1ccccc1F	-10.7%
O=C(N/N=C/c1ccoc1)c1ccc(Cl)cc1Cl	10%
Cc1ccc(Oc2cc(NC(=O)CCCn3nc([N+](=O)[O-])cc3C)cc([N+](=O)[O-])c2)cc1	9.26%
CC(C)(CNC(=O)c1ccc(-c2ccccc2Cl)o1)N1CCOCC1	-39.9%
CCC(=O)Nc1cccc(NC(=O)CSc2nnc(C(C)C)n2CC)c1	-9.89%
FC(F)(F)c1cc(-c2cccs2)nc2cc(-c3ccccc3)nn12	-13.3%
Cc1cc2oc(=O)cc(CN3CCOCC3)c2cc1O	-22.6%
CC(C)(C)NS(=O)(=O)CC12CCC(CC1=O)C2(C)C (stereo not drawn)	6.55%
CCN(CC)S(=O)(=O)c1ccc(N/N=C(\C)c2cccnc2)nc1	-16.4%
O=C(O)c1ccc2c(c1)C(=O)N(c1ccc(Nc3ccccc3)cc1)C2=O	20.9%
CCCc1cc(=O)n2c(nc3ccccc32)[nH]1	9.3%
Cc1ccc(C2/C(=C(\O)c3c(C)nc4ccccn34)C(=O)C(=O)N2CCN(C)C)o1 (stereo not drawn)	-0.83%

SMILES	hERG current change (%, negative = inhibition) at 10uM
O=[N+]([O-])c1ccc(O)c(/C=N/n2c(-c3ccccc3)n[nH]c2=S)c1	17.9%
O=C(Nc1ccccc1)NC1CCCCCCC1	-0.392%
COc1ccc(Oc2ccc(/C=N/NC(=O)c3cccnc3)cc2[N+](=O)[O-])cc1	-19.3%
CCCn1c(NCc2ccc(N(C)C)cc2)nc2ccccc21	-40.2%
CCCc1[nH]nc2c1C(c1ccc(OC)c(Cn3nnc4ccccc43)c1)C(C#N)=C(N)O2 (stereo not drawn)	-29.1%
CN(C)CC1CCCCC1OC(=O)c1ccc(Cl)cc1Cl.Cl (stereo not drawn)	-56.5%
COc1ccc2nc(SCC(=O)Nc3ccc4sc(C)nc4c3)c(C#N)cc2c1	10.2%
Cc1cc(C)n(Cc2ccc(NC(=O)c3nn(C)cc3[N+](=O)[O-])cc2)n1	1.68%
O=C(Cn1cnc2ccccc21)NC(c1ccccc1)c1ccccc1	1.29%
COCCNC(=O)NC(=O)CN1CCN(C(c2ccccc2)c2ccccc2)CC1	-6.84%
CC(=O)c1c(C)[nH]c(C(=O)CSc2nnc(-c3ccco3)n2Cc2ccccc2)c1C	-61.5%
O=C(O)C1CCC(=O)N(C2CCCCC2)C1c1ccccc1Cl (stereo not drawn)	9.09%
CCN(c1cccc(C)c1)S(=O)(=O)c1ccc(-c2cc(C)no2)s1	5.94%
COc1ccccc1-c1nn(Cc2ccccc2)cc1/C=C/C(=O)O	0.388%
Cc1cc(C)c(OCCCCN(C)Cc2ccccc2)c(C)c1.O=C(O)C(=O)O	-36.9%
CCOC(=O)c1cccc(NC(=O)c2c(O)[nH]c(=O)[nH]c2=O)c1	-2.88%
Nc1c(C(=O)c2ccc(Br)s2)oc2ccccc12	-8.01%
CCCOc1ccc(N2C(=O)CC(NCCc3ccc(S(N)(=O)=O)cc3)C2=O)cc1 (stereo not drawn)	-5.4%
NC(=O)CNC(=O)C1CCN(S(=O)(=O)c2ccc(-n3cnnn3)cc2)CC1	-41.4%
Cc1ccc(NC(=O)CCCc2c[nH]c3ccccc23)nc1	8.67%
CC1Cc2nc(SCC(=O)Nc3nc4ccccc4s3)n(C)c(=O)c2S1 (stereo not drawn)	-20.1%

SMILES	hERG current change (%, negative = inhibition) at 10uM
COc1ccccc1CNS(=O)(=O)c1cc2c3c(c1)C(C)C(=O)N3CCC2 (stereo not drawn)	19.5%
Cc1ccc(N(CC(=O)NC2CCCC2)C(=O)CCC(=O)Nc2nc(C)cs2)cc1	-11.9%
CCCCCOC(=O)CSc1nnc(-c2ccccc2)c(=O)[nH]1	-14.1%
CCN(CC)C(=O)CSc1nnc(-c2cc(-c3ccc(Cl)cc3)nc3ccccc23)o1	-3.85%
CC1Cc2ccccc2N1C(=O)CCNS(=O)(=O)c1cccc2nsnc12 (stereo not drawn)	-10.1%
Cc1c(C=O)c2ccccc2n1CC(=O)NC(C)c1ccccc1 (stereo not drawn)	16.5%
CN(C)c1ccc(NC(=O)CN2C(=O)CN=C(c3ccccc3)c3cc(Cl)ccc32)cc1	-5.05%
COc1cc2c(C#N)c(N3CCc4ccccc4C3)nc(N)c2c(N)n1	6.55%
CCOC(=O)c1ccc(OCCOc2cccc(C)c2)cc1	10.7%
CCn1c(-c2cc(Br)cc(OC)c2O)nc2cc(S(=O)(=O)N(C)C)ccc21	-6.88%
COC(=O)c1ccc(S(=O)(=O)NCc2ccc(S(N)(=O)=O)cc2)o1	9.93%
COc1ccc(COc2ccc(S(=O)(=O)N3CCCC3)cc2C(N)=O)cc1F	4.81%
COc1ccc(CCn2c(C)nc3c(c(=O)c4ccccc4n3C)c2=O)cc1	-61.4%
C[C@@H]1CN(C(=O)c2nc3ccc(Cl)cn3c2CN2CCc3sccc3C2)C[C@H](C)O1	-0.882%
Cc1ccc(C)c(NC(=O)CSc2nnc3n2CCCCC3)c1	11%
CCCCn1nnc(NC(=O)c2ccc(-c3ccccc3)cc2)n1	7.32%
COc1ccc(/C=N/NC(=O)c2ccoc2C)cc1COc1ccc(Cl)cc1	4.74%
O=C(c1c(Cl)cccc1Cl)N1CCCCCC1	6.06%
Cc1noc(C)c1COC(=O)c1cc(=O)[nH]c2ccccc12	-22.8%
COc1ccnc(Oc2ccc(F)cc2)c1C(=O)N/C=N/OCc1ccc(F)cc1	-9.65%
CN(C)C(CNC(=O)Cc1ccc([N+](=O)[O-])cc1)c1ccccc1 (stereo not drawn)	-28.6%

SMILES	hERG current change (%, negative = inhibition) at 10uM
CCOC(=O)c1c(-c2ccccc2)nnn1-c1nc(OCC)nc(N2CCCCC2)n1	-29.1%
Cc1ccccc1C(=O)NN1C(=O)CSC1=S	15.4%
Cc1ccc(OCC(=O)Nn2c(C)nc3ccccc3c2=O)c(C(C)C)c1	-34.7%
N#CCC(=O)N1CCN(C(c2ccccc2)c2ccccc2)CC1	2.43%
CNc1nc(Oc2ccccc2C(=O)OC)nc(SC)n1	-4.99%
CCOc1ccc(S(=O)(=O)N2CCN(CC(O)COc3cccc([N+](=O)[O-])c3)CC2)cc1 (stereo not drawn)	-65.5%
COC(=O)c1cc(NS(=O)(=O)c2ccc3c(c2)CCC(=O)N3)cc(C(=O)OC)c1	14.5%
COc1ccc(NC(=O)CSc2nnc3ccc(-c4ccccn4)nn23)cc1	10.9%
Cn1c(=O)c2c(nc(CN3CCN(c4cccc(Cl)c4)CC3)n2CCc2ccccc2)n(C)c1=O	-20.1%
NS(=O)(=O)c1ccc(CCNC(=O)c2ccc3ccccc3n2)cc1	-10.7%
CC(=O)N1CCc2c(sc(NC(=O)C3CCCN3S(=O)(=O)c3cccs3)c2C#N)C1 (stereo not drawn)	-0.991%
COC(=O)C1=C(O)/C(=C\c2ccc(O)c(OC)c2)N=C1C	3.78%
O=C(NCc1ccccn1)C1CCC(=O)N1C1CCCC1 (stereo not drawn)	1.93%
CC(C)(C)C(=O)N1CCN(c2nc3ccc(Cl)cc3s2)CC1	-12.2%
CC12CCC(C(=O)Nc3ccccc3Cl)(C(Br)C1=O)C2(C)C (stereo not drawn)	-1.31%
CC1(C)C(=O)CC[C@]2(C)C3C(=O)C=C4[C@H]5C[C@@](C)(C(=O)O)CC[C@]5(C)CC[C@]4(C)[C@]3(C)CC[C@@H]12 (stereo partly drawn)	3.34%
CCCCc1ccc(-n2nnnc2SCC(=O)Nc2cc(OC)c([N+](=O)[O-])cc2C)cc1	15.3%
CC[C@H]1CN(C)C[C@@]2(C(=O)OC)Cc3c([nH]c4ccccc34)C(=O)C[C@@H]12	9.71%
CCOc1ccccc1N1CSC2=C(C#N)C(c3c(OC)ccc4ccccc34)CC(=O)N2C1 (stereo not drawn)	10.2%
CCc1ccc(NS(=O)(=O)c2c(C(=O)N3CCOCC3)c(C)n(C)c2C)cc1	-22.6%
Cc1ccc(S(=O)(=O)c2cn(C)c3cc(N4CCOCC4)c(F)cc3c2=O)cc1	5.26%
